Results reported in the RNAGym collection of RNA variant scans (doi:10.1093/nar/gkz1192).
The source gives no read counts; variants with many changes may rest on few reads.

B1: CPEB3 Ribozyme (parent)
chain: UAACAGGGGGCCACAGCAGAAGCGUUCACGUCGCAGCCCCUGUCAGAUUCUGGUGAAUCUGCGAAUUCUGCUGUAUAUCUC

Variants of: B1
Test: self-cleavage, relative activity (ratio to wild type); higher = more cleavage; in vitro, sequencing
Outline: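 Relative activity compares each variant's cleaved/total read fraction with that of the unmutated ribozyme. To get these fractions, barcoded CPEB3 ribozyme libraries from rounds of error-prone PCR were transcribed with T7 RNA polymerase for 5 hours at 37°C and then given 15 min of DNase I treatment before EDTA was added. The RNAs were reverse transcribed with template switching and sequenced on Illumina, and DNA sequencing linked barcodes to variants. A minimum of 5 reads applied, and three batches were averaged.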

Variant | self-cleavage
UAACAGGGGGCCACAGCAGAAGCGUUCACGUCGCAGCCCCUGUCAGAUGCUGGUGAAUCUGCGAACUCUGCUGUAAAUCUC [U49G U66C U76A] | 0.17
UAACAGGGGGCCACAGCAGAAGCGUUCACGUCGCAGCCCCUGUCAGAUUCCGGUGAAUCUGCGAAUUCUGCAGUAAAUCUC [U51C U72A U76A] | 0.29
UAACAGGGGGCCACAGCAGAAGCGUUCACGUCGCAGCCCCUGUCAGAUUCAGGUUAAUCCGCAAAUUCUGCUGCAAAUCUC [U51A G55U U60C G63A U74C U76A] | 0.55
UAACAGGGGGCCACAGCAGAAGCGUUCACGUCGCAGCCCCUGUCAGAUUCCGGUGAAUCCGCGAGUUCUGCUGUAUAUCUC [U51C U60C A65G] | 0.36
UAACAGGGGGCCACAGCAGAAGCGUUCACGUCGCAGCCCCUGUCAGAUCCCGGUGAAUCUGCGAAUUCUGCUGUAUAUCCC [U49C U51C U80C] | 0.59
UAACAGGGGGCCACAGCAGAAGCGUUCACGUCGCAGCCCCUGUCAGAUUCAGGUGAAUCUGCGAAUUCUGCUGUAUGCCUC [U51A A77G U78C] | 0.79
UAACAGGGGGCCACAGCAGAAGCGUUCACGUCGCAGCCCCUGUCAGAUUCAGGUGUAUCUGCGAACUCUGCUGUAUAUCUC [U51A A56U U66C] | 0.2
UAACAGGGGGCCACAGCAGAAGCGUUCACGUCGCAGCCCCUGUCAGAUUCGGGGGAAUCUGCGAAUUCCGCUGUAUAUCUC [U51G U54G U69C] | 0.19
UAACAGGGGGCCACAGCAGAAGCGUUCACGUCGCAGCCCCUGUCAGAUUCCGGCGAAUCUGCGAAUUCGGCUGUAUAUCUC [U51C U54C U69G] | 0.84
UAACAGGGGGCCACAGCAGAAGCGUUCACGUCGCAGCCCCUGUCAGAUUCAGGUGAAUCUGCGAAUUCUGUUGUAUGUCUC [U51A C71U A77G] | 0.7
UAACAGGGGGCCACAGCAGAAGCGUUCACGUCGCAGCCCCUGUCAGAUCCUGGCGAAUCUGCGUAUUCUGCUGUAUACCUC [U49C U54C A64U U78C] | 0.13
UAACAGGGGGCCACAGCAGAAGCGUUCACGUCGCAGCCCCUGUCAGAUUCCGGUGAAUCCGCGAAUUCUUCUGUAUAUCUC [U51C U60C G70U] | 0.32
UAACAGGGGGCCACAGCAGAAGCGUUCACGUCGCAGCCCCUGUCAGAUUCCGGUGAAUCUGCGAAUGCUGCUGCAUAUCUC [U51C U67G U74C] | 0.41
UAACAGGGGGCCACAGCAGAAGCGUUCACGUCGCAGCCCCUGUCAGAUUCAGGUGAAUCUGCGAAUUCCGCUGUAUGUCUC [U51A U69C A77G] | 0.78
UAACAGGGGGCCACAGCAGAAGCGUUCACGUCGCAGCCCCUGUCAGAUUCGGGUGAGUCUGCGAAUCCUGCCGUAUAUCUC [U51G A57G U67C U72C] | 0.17
UAACAGGGGGCCACAGCAGAAGCGUUCACGUCGCAGCCCCUGUCAGAUUCGGGUGAAUCUGCGAGUCCUGCCGUAUAUCUC [U51G A65G U67C U72C] | 0.33
UAACAGGGGGCCACAGCAGAAGCGUUCACGUCGCAGCCCCUGUCAGAUGCUGGUGAACCUGCGGAUUCUGCUGUAUAUCUC [U49G U58C A64G] | 0.16

Variant | self-cleavage
UAACAGGGGGCCACAGCAGAAGCGUUCACGUCGCAGCCCCUGUCAGAUUACAGUGAAUCUGCGAAUCCUGCUGUAUAUCUC [C50A U51C G52A U67C] | 0.28
UAACAGGGGGCCACAGCAGAAGCGUUCACGUCGCAGCCCCUGUCAGAUUCCGGUGAAACCGCGAAUUCUGCUGUAUAUCCC [U51C U58A U60C U80C] | 0.13
UAACAGGGGGCCACAGCAGAAGCGUUCACGUCGCAGCCCCUGUCAGAUUCCGGUGACUCUGCGAAUUCUGCUGUAUACCUC [U51C A57C U78C] | 0.32
UAACAGGGGGCCACAGCAGAAGCGUUCACGUCGCAGCCCCUGUCAGAUUCCGGUGAAUCUGCGAAUCCCGCUGUAUAUCUC [U51C U67C U69C] | 0.33
UAACAGGGGGCCACAGCAGAAGCGUUCACGUCGCAGCCCCUGUCAGAUUCCUGCGAAUCUGCGAAUUCUGCUGUAUAUCUC [U51C G52U U54C] | 1.18
UAACAGGGGGCCACAGCAGAAGCGUUCACGUCGCAGCCCCUGUCAGAUUCUAGUGUAUCCGCGAAUUCUGCUGUAUAUCUC [G52A A56U U60C] | 0.31
UAACAGGGGGCCACAGCAGAAGCGUUCACGUCGCAGCCCCUGUCAGAUUCCGGUGGAUCUGCGAAUUCUGCGGUAUAUCUC [U51C A56G U72G] | 0.47
UAACAGGGGGCCACAGCAGAAGCGUUCACGUCGCAGCCCCUGUCAGAUCCUGGUGAAUCUGCGAAUUCCGCUGUAUAUCCC [U49C U69C U80C] | 0.34
UAACAGGGGGCCACAGCAGAAGCGUUCACGUCGCAGCCCCUGUCAGAUUCCGGUGAAUCUGCGGACUCUGCUGUAUAUCCC [U51C A64G U66C U80C] | 0.24
UAACAGGGGGCCACAGCAGAAGCGUUCACGUCGCAGCCCCUGUCAGAUUCCGGUGAAACUGCGAAUUCUGCUGUGUAUCUC [U51C U58A A75G] | 0.19
UAACAGGGGGCCACAGCAGAAGCGUUCACGUCGCAGCCCCUGUCAGAUUCCGGUGAAUCUGCGAAUCCUGCUGUAUACCUC [U51C U67C U78C] | 0.63
UAACAGGGGGCCACAGCAGAAGCGUUCACGUCGCAGCCCCUGUCAGAUUCAGGCGAAUCUGCGAAUCCUGCUGUAUAUCUC [U51A U54C U67C] | 0.3
UAACAGGGGGCCACAGCAGAAGCGUUCACGUCGCAGCCCCUGUCAGAUUCAGGUGAAACUGCGAAUUCUGCCGUAUAUCUC [U51A U58A U72C] | 0.52
UAACAGGGGGCCACAGCAGAAGCGUUCACGUCGCAGCCCCUGUCAGAUUCAGGUGGAUCUGUGAAUUCUGCUGUAUAUCUC [U51A A56G C62U] | 0.25
UAACAGGGGGCCACAGCAGAAGCGUUCACGUCGCAGCCCCUGUCAGAUUCCGGUGAAUCAGCGAAUUCUGCUGUACAUCUC [U51C U60A U76C] | 0.32
UAACAGGGGGCCACAGCAGAAGCGUUCACGUCGCAGCCCCUGUCAGAUCCUGGUGAACCUGCGAAUUCUGCUGUAUACCUC [U49C U58C U78C] | 0.17
UAACAGGGGGCCACAGCAGAAGCGUUCACGUCGCAGCCCCUGUCAGAUUCCGGUGAAUCUGCGAAUACUGCCGUAUAUCUC [U51C U67A U72C] | 0.51
